# Measurements published in PubChem BioAssay AID624418 (National Center for Advancing Translational Sciences (NCATS), 2012).
# Out of some 410,000 compounds screened, about 530 (0.13%) were called active. The inconclusive results got no clear call from the source; some entries with a clear call stand among them for comparison. Calls follow the shape of the dose curve; as a rule, active = well fitted inhibition curve with a large enough effect; inconclusive = small, poorly fitted or top-dose-only effect, or another doubt; inactive = no such curve, though single readings can be large or run the other way. Potencies beside an inconclusive call are fits to weak or partial responses and may not hold up.
# Test: qHTS of GLP-1 Receptor Inverse Agonists: Cytotox Screen
# Conditions: HEK293 cAMP-luciferase reporter cells, luminescence, 24 h; activity change, negative = inhibition: at 38.3 µM (top of the series) unless noted
# In short: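 Cells in DMEM/10% Nu serum/1% pen-strep, 1536-well format. Pre-incubated 12 h, dosed with 23 nL compound, incubated a further 24 h. Luciferase detection, 12 min at room temp, luminescence.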
# % is scaled to controls: 0 for no effect and ±100 for the full control effect; potency is read from the fitted curve at half-maximal effect.
Structure (SMILES),Potency,"activity change, negative = inhibition"
O=C(CCl)N1c2ccccc2Oc2ccc3ccccc3c21,inactive,–
O=C1NC(=S)N/C1=C/c1cccn1-c1ccc([N+](=O)[O-])cc1,"inconclusive: 20 µM [inhibitor, single point]",–
CC(=O)Nc1cccc(NC(=O)CSc2ncc(C(=O)Nc3ccccc3)c(=O)n2C)c1,"inconclusive: 28.2 µM [inhibitor, single point]",–
Cc1cccc(NC(=S)N/N=C/C(C)c2ccccc2)c1C (configuration not stated),"inconclusive: 10 µM [inhibitor, partial curve, poor fit]",–
CCOC(=O)Cc1csc(NC(=O)/C=C/c2ccco2)n1,inactive,–
O=c1c(O[C@@H]2O[C@H](CO)[C@@H](O)[C@H](O)[C@H]2O)c(-c2ccc(O)cc2)oc2cc(O)cc(O)c12,inactive,–
O=C(Nc1cccc(-c2nc3ccccc3s2)c1)c1ccc2c(c1)OCO2,"inconclusive: 6.31 µM [inhibitor, partial curve, poor fit]",–
O=C(NC(=S)Nc1ccccn1)c1ccc(-c2ccccc2)cc1,"inconclusive: 3.16 µM [inhibitor, full curve]",–
CN(/N=C\c1ccc(O)c(O)c1)c1nc(-c2ccccc2)cc(-c2ccccc2)n1,"inconclusive: 28.2 µM [inhibitor, single point]",–
COc1ccc(/C=N/NC2=NS(=O)(=O)c3ccccc32)cc1OC(C)=O,"inconclusive: 28.2 µM [inhibitor, single point]",–
Cc1ccc(Nc2ncc(C(=O)NCCCN3CCN(C)CC3)c3ccccc23)cc1Cl,"inconclusive: 22.4 µM [inhibitor, single point]",–
CCCCCC(=O)N1C[C@@H](n2cc(-c3ccc(F)cc3)nn2)[C@H](O)C[C@@H]1c1ccc(Cl)cc1,"inconclusive: 28.2 µM [inhibitor, single point]",–
CN1CCC(=O)N([C@H](CC#N)c2ccccc2)CC1,"inconclusive: 0.501 µM [inhibitor, full curve, poor fit]",–
c1ccc(-[n+]2nc(Nc3cccc4ccccc34)sc2-c2c3ccccc3cc3ccccc23)cc1,"inconclusive: 10 µM [inhibitor, partial curve]",–
CN(C)CCNC(=O)c1cc2c(s1)-c1ccc(Cl)cc1SC2,"inconclusive: 28.2 µM [inhibitor, single point]",–
CC(=O)Nc1cccc(-c2ccnc3c2CC(C)(C(=O)NCc2ccc(N(C)C)cc2)O3)c1 (configuration not stated),"inconclusive: 10 µM [inhibitor, partial curve]",–
CCOC(=O)NC(=S)Nc1ccc(C(C)(C)C)cc1Br,inactive,–
CCOc1ccccc1Nc1ncccc1C(=O)N1CCCC1,"inconclusive: 31.6 µM [inhibitor, single point]",–
COC(=O)c1ccccc1NC1=C/C(=N\S(=O)(=O)c2ccc(C(=O)O)cc2)c2ccccc2C1=O,"inconclusive: 12.6 µM [inhibitor, partial curve, poor fit]",–
CN(C)CCCN(C(=O)c1ccc(S(=O)(=O)N2CCCCCC2)cc1)c1nc2cc3c(cc2s1)OCCO3,"inconclusive: 12.6 µM [inhibitor, single point]",–
CC1CCC(NC(=O)C2COc3ccccc3O2)CC1 (configuration not stated),inactive,–
COc1cc(C(=O)NCCOc2cc(C)ccc2C(C)C)cc(OC)c1OC,inactive,–
COc1ccc2c(c1)C(c1ccc(Cl)cc1)NC(=O)C2 (configuration not stated),"inconclusive: 0.708 µM [inhibitor, full curve, poor fit]",–

Structure (SMILES),Potency,"activity change, negative = inhibition"
O=C(CSc1nnc(CNc2ccccc2)o1)N1CCc2ccccc21,inactive,–
COc1ccc(Cl)cc1NC(=O)C/C(C)=N/NC(=O)c1ccc(O)cc1,inactive,–
CCc1ccc(OCC(=O)NC(NC(=S)Nc2ccccc2OC)C(Cl)(Cl)Cl)cc1 (configuration not stated),inactive,–
COc1ccccc1N1CCN(Cc2ccc(OC)c(OC)c2OC)CC1,"inconclusive: 3.98 µM [inhibitor, full curve, poor fit]",–
Cc1ccc(OCC(=O)N(Cc2ccccc2)C2CCS(=O)(=O)C2)c([N+](=O)[O-])n1 (configuration not stated),inactive,–
CCOC(=O)C(C)(C)N(Cc1cccc(C)c1)S(=O)(=O)c1ccc(Cl)c([N+](=O)[O-])c1,"inconclusive: 25.1 µM [inhibitor, single point]",–
Cc1cc(C)n(-c2nc(NCCO)c3c4c(sc3n2)CCCC4)n1,"inconclusive: 2 µM [inhibitor, full curve, poor fit]",–
CCOC(=O)CCCCCC(=O)Nc1ccc2c(c1)C(=O)N([C@@H](C)CO)C[C@H](C)[C@H](CN(C)C(=O)c1ccccc1)OCCCC[C@H](C)O2,inactive,–
O=C(CCN1C(=O)c2ccccc2C1=O)Nc1sc2c(c1C(=O)NCc1ccco1)CCCC2,inactive,–
Cc1ccc(S(=O)(=O)N(C)c2ccc3c(ncn3C)c2[N+](=O)[O-])cc1,"inconclusive: 3.55 µM [inhibitor, partial curve]",–
N#Cc1c(NC(=O)/C=C/C(=O)O)sc2c1CCN(Cc1ccccc1)C2,inactive,–
c1ccc(-c2cc(-c3nc4ccccc4[nH]3)c3ccccc3n2)cc1,inactive,–
O=C(CSc1nnc(Cc2cccs2)n1C1CCCCC1)N1CCCc2ccccc21,"inconclusive: 28.2 µM [inhibitor, single point]",–
CN1CCN(C2Cc3ccc(F)cc3Sc3cc(F)c(Cl)cc32)CC1 (configuration not stated),"inconclusive: 28.2 µM [inhibitor, single point]",–
CCOc1ccccc1-n1nnnc1SCC(=O)NCC1(N2CCOCC2)CCCCC1,"inconclusive: 14.1 µM [inhibitor, single point]",–
CN1C=CC=C/C1=C1/SC(=S)N(Cc2ccccc2)C1=O,"inconclusive: 10 µM [inhibitor, partial curve, poor fit]",–
CC[n+]1ccc(C)c2cc(S(=O)C(F)(F)F)ccc21 (configuration not stated),"inconclusive: 12.6 µM [inhibitor, single point]",–
O=C(N/N=C/c1ccccc1O)c1cccc(C(F)(F)F)c1,–,inconclusive: -74.1% [inhibitor] [at 1.53 µM]
COCCCNCCCOc1ccc(Cl)cc1C(C)(C)C,"inconclusive: 28.2 µM [inhibitor, single point]",–
CCNC(=S)N/N=C(\C)c1cccc([N+](=O)[O-])c1,"inconclusive: 11.2 µM [inhibitor, partial curve, poor fit]",–
Cc1cnc(Nc2nc3ccccc3o2)nc1C(=O)Nc1cccc(C(F)(F)F)c1,"inconclusive: 5.01 µM [inhibitor, full curve, poor fit]",–
O=[N+]([O-])c1cc(C=NN2CCCCCC2)ccc1Cl,inactive,–
CC1CCN(S(=O)(=O)c2cc(C(=O)NCc3ccc(F)cc3)n(C)c2)CC1,inactive,–

Structure (SMILES),Potency,"activity change, negative = inhibition"
O=C(Nc1ccc(SC(F)F)cc1)c1ccc(F)cc1,inactive,–
Cc1c(NC(=S)N/N=C/c2cc([N+](=O)[O-])ccc2O)c(=O)n(-c2ccccc2)n1C,"inconclusive: 10 µM [inhibitor, partial curve]",–
O=C(CCN1CCc2ccccc2CC1)c1ccc2c(c1)OCCO2,"inconclusive: 28.2 µM [inhibitor, single point]",–
Cc1ccc(CN2CCSCC2)cc1,inactive,–
CC(C)OCCCN1C(=O)c2[nH]nc(-c3ccccc3O)c2C1c1cccc(Cl)c1 (configuration not stated),"inconclusive: 14.1 µM [inhibitor, single point]",–
CN(C)CCCNc1ncnc2oc(-c3ccccc3)c(-c3ccccc3)c12,–,inconclusive: -86.7% [inhibitor]
CC1=NN(C(=O)c2ccc(Cn3nc(C)c([N+](=O)[O-])c3C)o2)C(O)(C(F)(F)F)C1 (configuration not stated),"inconclusive: 7.94 µM [inhibitor, partial curve]",–
COCCn1c(SCC(=O)N2CCC(C)CC2)nc2ccccc2c1=O,"inconclusive: 10 µM [inhibitor, partial curve, poor fit]",–
Cn1cnc([N+](=O)[O-])c1S(=O)(=O)c1cccc(Cl)c1,"inconclusive: 11.2 µM [inhibitor, single point]",–
CC(=O)NN1C(=O)/C(=C\c2ccc(Br)o2)SC1=S,"inconclusive: 28.2 µM [inhibitor, single point]",–
Cc1cc(C(=O)OC(C(=O)Nc2cccc(C(F)(F)F)c2)c2ccccc2)c(C)o1 (configuration not stated),"inconclusive: 28.2 µM [inhibitor, single point]",–
O=C(NC1CCN(S(=O)(=O)c2ccccc2)CC1)C1CCCCC1,"inconclusive: 0.501 µM [inhibitor, full curve, poor fit]",–
CC(NS(=O)(=O)OCC(Cl)(Cl)Cl)c1ccc(C(C)(C)C)cc1 (configuration not stated),"inconclusive: 28.2 µM [inhibitor, single point]",–
COc1ccc(Cl)cc1NC(=S)NCCc1ccc(F)cc1,"inconclusive: 10 µM [inhibitor, partial curve, poor fit]",–
Fc1ccc2c(c1)Sc1ccc(Cl)cc1CC2N1CCN(CCC2OCCO2)CC1 (configuration not stated),"inconclusive: 28.2 µM [inhibitor, single point]",–
O=C(NCc1nc2ccccc2[nH]1)C1=C[C@H](c2ccc(C(F)(F)F)cc2)C[C@H](OCCCCO)O1,"inconclusive: 0.501 µM [inhibitor, full curve, poor fit]",–
C/C(CCc1ccc2c(c1)OCO2)=N\NC(=S)NC(C)C,active: 3.16 µM,–
COc1ccccc1/C(C)=N/NC(=S)NCc1ccccc1,active: 5.01 µM,–
CCOC(=O)c1nc(C)sc1-c1ccnn1S(=O)(=O)c1ccccc1C(F)(F)F,inactive,–
S=C(NCC1CCCCC1)Nc1ccc(Oc2ccccc2)cc1,"inconclusive: 28.2 µM [inhibitor, single point]",–
Oc1ccc(-c2csc(-c3cccnc3)n2)cc1O,"inconclusive: 11.2 µM [inhibitor, single point]",–
